Measurements taken from PubChem BioAssay AID485364 (National Center for Advancing Translational Sciences (NCATS), 2010).
Among all 360,000 compounds or so, about 11,000 (3.1%) were called active. Inconclusive means that the source gave no clear call. Such entries were picked first, then a sample of the others. Calls come from the whole dose curve; as a rule, active = well fitted inhibition curve with a large enough effect; inconclusive = small, poorly fitted or top-dose-only effect; inactive = no such curve, though single readings can be large or run the other way. Potencies of inconclusive entries are left out as doubtful fits.

What follows are molecules tested against Schistosoma mansoni thioredoxin glutathione reductase (TGR) (UniProt Q962Y6) (assay: qHTS Assay for the Inhibitors of Schistosoma Mansoni Peroxiredoxins). Details: purified TGR, DTNB reduction, TNB absorbance 405 nm; activity change, negative = inhibition: at 114 µM (top of the series) unless noted.
In short: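 TGR 20 nM + NADPH 100 uM (dispensed conc.), cpd preinc 15 min RT; start with NADPH (500 uM addition) then DTNB (15 mM addition). Kinetic TNB absorbance, 405 nm filter. Four-parameter Hill fit across titration.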
% is set by controls: 0 for no effect and ±100 for the full control effect; potency is the fitted concentration of half-maximal effect; tags give direction and shape of the fitted curve.
Note: nearly all actives have a fitted effect of over 60% in size.

Row | SMILES | activity change, negative = inhibition | Potency
1 | COc1ccccc1N1CCN(S(=O)(=O)CCNC(=O)CC2CCCCC2)CC1 | inactive: 6.33% | –
2 | O=C1c2sc3nc4n(c(=O)c3c2CCC1Br)CCCCC4 (stereo unspecified) | – | inconclusive [inhibitor, partial curve]
3 | O=C(Cc1ccccc1[N+](=O)[O-])OCc1cccc([N+](=O)[O-])c1 | inactive: 12.3% | –
4 | O=C(CC1C(=O)NCCN1Cc1cccc(Oc2ccccc2)c1)NCCc1ccccn1 (stereo unspecified) | – | inconclusive [inhibitor, partial curve]
5 | CN(C)c1ccc(C(c2nnnn2CCOC(=O)Nc2ccc(Cl)cc2)N2CCOCC2)cc1 (stereo unspecified) | – | active: 25.1 µM
6 | Cc1ccc(-c2nn(-c3ccccc3)cc2C2SCC(=O)N2Cc2ccccc2)o1 (stereo unspecified) | – | active: 11.2 µM
7 | COC(=O)c1c(NC(=O)CC2SC(N)=NC2=O)sc2c1CCC(C)C2 (stereo unspecified) | – | inconclusive [inhibitor, partial curve]
8 | Cc1cc(Cl)ccc1OCC(=O)Nc1ccncc1 | inactive: 6.54% | –
9 | Cc1ccc(-n2c3c(cc(C(=O)NCc4ccco4)c2=O)C(=O)CC(C)(C)C3)cc1 | – | active: 22.4 µM
10 | CCCCCCSc1ccc([C@@H]2[C@@H]3C(=O)N(CC)C(=O)[C@@H]3[C@]3(C(=O)OC)CCCCN23)cc1OC | – | inconclusive [inhibitor, full curve]
11 | C=CCNC(=O)/C(C#N)=C/c1ccc(SC)cc1 | inactive: 2.5% | –
12 | Cc1ccc2cc(C(c3nnnn3C3CCCC3)N3CCN(c4ccccc4)CC3)c(=O)[nH]c2c1 (stereo unspecified) | – | active: 12.6 µM
13 | COc1ccc(OC)c(NC(=O)CC2SC(=Nc3ccc(F)cc3)N(CCC3=CCCCC3)C2=O)c1 (stereo unspecified) | inactive: -8.1% | –
14 | NCC(O)c1cc(O)c(O)cc1F (stereo unspecified) | – | active: 44.7 µM
15 | Clc1ccc(OCc2nn3c(-c4ccco4)nnc3s2)cc1 | – | active: 31.6 µM
16 | Cc1cc(C)c(OCC(=O)OCCNC(=O)c2cccnc2)c(C)c1 | – | active: 35.5 µM
17 | COc1ccccc1N1C(=O)CC(N(O)c2ccccc2)C1=O (stereo unspecified) | – | active: 39.8 µM
18 | CN1c2ccccc2C(C)(C)C12CC(CCl)=NO2 (stereo unspecified) | – | active: 39.8 µM
19 | CS(=O)(=O)N1CCc2cc(C(=O)NCc3ccccc3)ccc21 | inactive: 5.88% | –
20 | Cc1ccc(N2C(=O)CC(Sc3ccccc3C(=O)O)C2=O)cc1 (stereo unspecified) | – | active: 12.6 µM
21 | Cc1ccc(CCNC(=O)CS(=O)Cc2nc(-c3ccccc3F)oc2C)cc1 (stereo unspecified) | – | inconclusive [inhibitor, full curve]
22 | COc1cc(C)c(-c2nc(CN3C[C@@H]4C[C@@H](C3)c3cccc(=O)n3C4)c(C)o2)cc1C | – | inconclusive [inhibitor, partial curve]
23 | CCc1ccc(NC(=O)CSc2nc(=O)n(Cc3ccco3)c3c2CCC3)cc1 | – | active: 44.7 µM
24 | Nc1ccc(N=Nc2ccccc2)c2cccnc12 | – | inconclusive [inhibitor, partial curve]
25 | COc1cccc(C2=CC(c3ccc(N(C)C)cc3)n3nnnc3N2)c1 (stereo unspecified) | – | inconclusive [inhibitor, partial curve]
26 | N/C(=N\OC(=O)c1cccs1)c1ccccc1 | inactive: -1.19% | –

Row | SMILES | activity change, negative = inhibition | Potency
27 | O=c1c(Cl)c(Nc2cccc(Cl)c2)cnn1-c1nc2ccccc2s1 | – | inconclusive [inhibitor, partial curve]
28 | O=C(OCCCc1cc2ccccc2c(=O)o1)c1ccco1 | – | inconclusive [inhibitor, partial curve]
29 | CC1CCCN(C(=O)c2ccc(NC(=O)CC3SC(N4CCCC4)=NC3=O)cc2)C1 (stereo unspecified) | inactive: 0.435% | –
30 | O=S(=O)(CCc1ccncc1)Cc1ccc2c3c(cccc13)CC2 | – | active: 39.8 µM
31 | CC(C)c1ccc(-c2csc3nc[nH]c(=O)c23)cc1 | inactive: -16.6% | –
32 | COc1ccc(Cl)cc1NC(=S)NCCc1ccc(S(N)(=O)=O)cc1 | – | active: 2.82 µM
33 | CSc1ccc(CNC(=O)c2cc3c(=O)n(Cc4ccco4)ccc3nc2C)cc1 | – | active: 44.7 µM
34 | CSc1ccccc1OCc1cc(C(=O)N2CCc3[nH]cnc3C2c2ccccn2)no1 (stereo unspecified) | – | inconclusive [inhibitor, full curve, poor fit]
35 | COCCCNC(=S)Nc1cccc2ncccc12 | – | inconclusive [inhibitor, partial curve]
36 | N#C/C(=C/c1ccc(Br)o1)C(N)=S | – | active: 3.55 µM
37 | CCN(C(=O)c1cccc(S(=O)(=O)N(C)C)c1)C12CC3CC(CC(C3)C1)C2 | inactive: -8% | –
38 | Oc1ccccc1N=Cc1c(O)ccc2oc3c(c12)CCCC3 | – | inconclusive [inhibitor, partial curve, poor fit]
39 | CC1CCCC(C)N1/N=C/c1ccccc1F (stereo unspecified) | – | inconclusive [inhibitor, partial curve]
40 | COc1ccc(CCNC(=O)C2CC(c3ccc([N+](=O)[O-])cc3)=NO2)cc1 (stereo unspecified) | inactive: 2.01% | –
41 | CN(C)CCN1C(=O)C(=O)/C(=C(/O)c2ccc(OCc3ccccc3)cc2)C1c1ccncc1 (stereo unspecified) | – | inconclusive [inhibitor, full curve, poor fit]
42 | CCOc1ccc(/C(O)=C2/C(=O)C(=O)N(c3nc(C)c(C)s3)C2c2ccco2)cc1 (stereo unspecified) | – | inconclusive [inhibitor, partial curve]
43 | Cc1ccc(Cl)cc1N1CCN(CCNC(=O)Nc2ccc(Cl)cc2)CC1 | inactive: -0.736% | –
44 | CC(=O)N1CCc2ccc(S(=O)(=O)Nc3ccccc3Cl)cc21 | inactive: 9.03% | –
45 | CCOC(=O)N1CCN(C(=O)c2ccc(OCC)cc2)CC1 | inactive: -34.8% | –
46 | CC(=O)N1CCC2(CC1)OC(=O)C(C)=C2C(=O)Nc1ccccc1C(F)(F)F | inactive: 6.75% | –
47 | CCOC(=O)C(CCCOc1ccccc1C)C(=O)OCC | inactive: -4.25% | –
48 | O=C(/N=C1\NC(=O)C(F)(C(F)(F)F)S1)NC1CCCCC1 (stereo unspecified) | – | active: 12.6 µM
49 | O=C1CC(=O)N(c2ccc(Cl)cc2Cl)C(=O)N1 | – | inconclusive [inhibitor, full curve, poor fit]
50 | CCOc1ccc(C(C(=O)NC2CCCCC2)N(C(=O)Cc2cccs2)c2ccc(-n3cnnn3)c(OC)c2)cc1 (stereo unspecified) | inactive: -9.34% | –
51 | CCOc1ccc(CN2CCNC(=O)C2CC(=O)NC2CCCCCC2)cc1 (stereo unspecified) | – | inconclusive [inhibitor, partial curve]
